What all share (test): Primary Screen for Target Class Profiling of Small Molecule Inhibitors of Methyltransferases
For experiment [1], the target named is Glycine N-methyltransferase (Homo sapiens) (UniProt Q14749). The following applies: purified enzyme, MTase-Glo SAH luminescence; measured here: GNMT inhibition; at 40 µM; stronger effect = lower value. In a few lines:
(§1)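 Each enzyme was assayed with SAM and its substrate. SAH formation detected by MTase-Glo luminescence; single-point 40 uM screen[…].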

The target in experiment [2] is Guanidinoacetate N-methyltransferase (Homo sapiens) (UniProt Q14353). The following applies: purified enzyme, MTase-Glo SAH luminescence; measured here: GAMT inhibition; at 40 µM; stronger effect = lower value. In a few lines: as §1
Experiment [3] concerns the target Histamine N-methyltransferase (Homo sapiens) (UniProt P50135). The note with it: purified enzyme, MTase-Glo SAH luminescence; measured here: HNMT inhibition; at 40 µM; stronger effect = lower value. In a few lines: as §1
Experiment [4] deals with Nicotinamide N-methyltransferase (Homo sapiens) (UniProt P40261). The following applies: purified enzyme, MTase-Glo SAH luminescence; measured here: NNMT inhibition; at 40 µM; stronger effect = lower value. In a few lines:
as §1

The target in experiment [5] is Phenylethanolamine N-methyltransferase (Homo sapiens) (UniProt P11086). The following applies: purified enzyme, MTase-Glo SAH luminescence; measured here: PNMT inhibition; at 40 µM; stronger effect = lower value. The gist of the method: as §1

Some of the results follow. Shown are side measurements of this screen, not its main read-out; they come without a call.
% is scaled to controls: 0 for no effect and ±100 for the full control effect.

`COc1cc(C2Oc3c(OC)cc(CCCO)cc3C2CO)ccc1O[C@H]1O[C@H](C)[C@@H](O)[C@H](O)[C@@H]1O` (stereo not given in full): the activity change, negative = inhibition in experiment [1] is -0.359%; in experiment [2] it was -1.3%; in experiment [3], 9.43%; in experiment [4] it was -13.5%; in experiment [5] it was -9.95%.

Regarding `CC(C)NC(=O)c1ccc2c(=O)n(Cc3ccccc3)c3nnc(SCc4ccccc4)n3c2c1`, the activity change, negative = inhibition amounted to 5.89% in experiment [1]; 0% in experiment [2]; 8.12% in experiment [3]; 5.31% in experiment [4]; 6.38% in experiment [5].

As for `CC1=CC(=O)C2C(C)(C)CC(O)CC2(C)C1CO` (stereo not given), the activity change, negative = inhibition is 6.31% in experiment [1]; 6.28% in experiment [2]; 8.63% in experiment [3]; -5.05% in experiment [4]; 6.21% in experiment [5].

With `NC(=O)c1cccc(N)c1`, the activity change, negative = inhibition in experiment [1] was -0.931%; in experiment [2], 7.31%; in experiment [3] it was 2.92%; in experiment [4], -4.92%; in experiment [5] it was 4.74%.

Regarding `O=C1NC(O)=NC1(c1ccccc1)c1ccccc1`, the activity change, negative = inhibition was 8.03% in experiment [1]; 10.3% in experiment [2]; 11.7% in experiment [3]; -6.44% in experiment [4]; 4% in experiment [5].

Take `CC1(C(=O)NC2CCCCCCC2)Cn2c(cc3sccc32)C(=O)N1CCc1ccccc1` (stereo not given): the activity change, negative = inhibition in experiment [1] is 4.77%; in experiment [2] it was 0%; in experiment [3], 9.62%; in experiment [4], 1.37%; in experiment [5] it was 1.57%.

Take `Cc1cnccc1CN(C)C(=O)c1cc(COc2ccc(-n3cncn3)cc2)on1`: the activity change, negative = inhibition is -8.4% in experiment [1]; -10.1% in experiment [2]; -6.05% in experiment [3]; -12.3% in experiment [4]; -3.59% in experiment [5].

For the compound `CC(C)CNC(=O)c1ccc2c(=O)n(CC(C)C)c3nn(CC(=O)c4ccccc4)c(=O)n3c2c1`, the activity change, negative = inhibition was 6.97% in experiment [1]; 1.06% in experiment [2]; 10.2% in experiment [3]; 4.92% in experiment [4]; 9.1% in experiment [5].

For `CCOC(=O)c1cc2n(n1)CC(C)(C(=O)NCCCOC)N(c1ccc(F)cc1C)C2=O` (stereo not given), the activity change, negative = inhibition in experiment [1] turned out to be 6.85%; in experiment [2] it was 1.14%; in experiment [3] it was 7.47%; in experiment [4] it was 8.26%; in experiment [5] it was 3.92%.

`O=C(c1ccc2c(c1)OCCO2)N1CCC(Cn2cc(CCO)nn2)CC1`: the activity change, negative = inhibition in experiment [1] was -0.397%; in experiment [2] it was -2.79%; in experiment [3] it was 2.13%; in experiment [4] it was -5.6%; in experiment [5] it was 2.47%.

For the compound `Cc1ccsc1CCNC(=O)Cn1c(=O)oc2cc(S(=O)(=O)NCc3ccccc3)ccc21`, the activity change, negative = inhibition was -0.896% in experiment [1]; 3.63% in experiment [2]; -5.85% in experiment [3]; -6.59% in experiment [4]; -11.8% in experiment [5].

`CN1C(=O)c2cc(C(=O)Nc3cccc(Cl)c3)nn2CC1(C)C(=O)NC1CCCCC1` (stereo not given): the activity change, negative = inhibition in experiment [1] was -4.44%; in experiment [2], -0.725%; in experiment [3], 0.572%; in experiment [4], 2.66%; in experiment [5], 0.388%.

Regarding `CCOc1ccc(CNC(=O)c2cc3n(n2)CC(C)(C(=O)NCCC(C)C)N(C)C3=O)cc1` (stereo not given), the activity change, negative = inhibition in experiment [1] was 0.853%; in experiment [2], 0%; in experiment [3], 0.927%; in experiment [4] it was 8.01%; in experiment [5] it was 2.62%.

For `CNC(=O)Nc1cccn2nc(-c3ccccc3)nc12`, the activity change, negative = inhibition was -11.6% in experiment [1]; -13.2% in experiment [2]; -6.68% in experiment [3]; -11.3% in experiment [4]; -11.5% in experiment [5].

As to `CC(C)CC(=O)NCCn1cc(C(=O)O)c(=O)cc1C(O)c1ccccc1` (stereo not given), the activity change, negative = inhibition in experiment [1] is -0.944%; in experiment [2] it was 0.385%; in experiment [3], 3.35%; in experiment [4], -11.3%; in experiment [5], 4.63%.

With `CN(Cc1cnn(-c2ccc(F)cc2)c1)c1cc(C2CC(O)C2)ncn1` (stereo not given), the activity change, negative = inhibition was -2% in experiment [1]; 0.68% in experiment [2]; -2.71% in experiment [3]; -1.84% in experiment [4]; 5.37% in experiment [5].

Regarding `COc1cc2nc(N3CCC(N4CCCCC4)CC3)nc(NC3CCCCCC3)c2cc1OC`, the activity change, negative = inhibition in experiment [1] was -39.9%; in experiment [2], -14%; in experiment [3] it was -75.6%; in experiment [4], -61.4%; in experiment [5] it was -35%.

`CCCN1C(=O)c2c(C(=O)NCc3ccccc3Cl)ncn2CC1(C)C(=O)NCc1ccc(OC)cc1` (stereo not given): the activity change, negative = inhibition was determined as 1.26% in experiment [1]; 3.2% in experiment [2]; 3.93% in experiment [3]; 1.68% in experiment [4]; 3.27% in experiment [5].

For the compound `CC1=CC(=O)CC(C)(C)[C@H]1/C=C/C(CO)O[C@@H]1O[C@H](CO)[C@@H](O)[C@H](O)[C@H]1O` (stereo not given in full), the activity change, negative = inhibition in experiment [1] was 3.41%; in experiment [2], 0.004%; in experiment [3] it was 2.61%; in experiment [4] it was -13.2%; in experiment [5], 3.55%.

Take `CN1C(=O)c2cc(C(=O)NCc3ccc(Cl)cc3)nn2CC1(C)C(=O)NC1CCCCCC1` (stereo not given): the activity change, negative = inhibition in experiment [1] was 4.43%; in experiment [2], 3.69%; in experiment [3], 7.38%; in experiment [4], 9.52%; in experiment [5] it was 3.78%.

For `C[C@@H]1[C@H](O)[C@@H]2OC(=O)C3=C2[C@H](CCC3)[C@@]12C[C@@H](c1ccoc1)OC2=O`, the activity change, negative = inhibition in experiment [1] is -0.569%; in experiment [2] it was 2.53%; in experiment [3], 6.54%; in experiment [4], -8.27%; in experiment [5] it was 3.56%.

`C=Cc1ccc(O[C@@H]2O[C@H](CO[C@@H]3O[C@@H](C)[C@H](O)[C@@H](O)[C@H]3O)[C@@H](O)[C@H](O)[C@H]2O)cc1`: the activity change, negative = inhibition in experiment [1] is 3.97%; in experiment [2] it was 4.48%; in experiment [3], 12%; in experiment [4] it was -8.72%; in experiment [5], 6.2%.

In the case of `Cc1ccc(S(=O)(=O)N2CCN(C3CCN(CCC(C)C)C3=O)CC2)cc1F` (stereo not given), the activity change, negative = inhibition in experiment [1] was -0.412%; in experiment [2], -1.45%; in experiment [3] it was 0.899%; in experiment [4] it was -4.67%; in experiment [5], -11.8%.

In the case of `COCCCN1C(=O)c2cc3sccc3n2CC1(C)C(=O)NC1CCCCC1` (stereo not given), the activity change, negative = inhibition in experiment [1] is -5.16%; in experiment [2] it was 2.61%; in experiment [3], -2.93%; in experiment [4], -11%; in experiment [5], -1.18%.

Regarding `CC(C)c1nc(-c2ccc(C(=O)N[C@@H]3COCC[C@@H]3OCC3CC3)cc2)no1`, the activity change, negative = inhibition is -3.54% in experiment [1]; -6.73% in experiment [2]; -5.46% in experiment [3]; -11.6% in experiment [4]; -9.39% in experiment [5].

Take `CC(C)CN1CCN(C(=O)C2CCc3ncc(-c4ccc(F)cc4)n3C2)CC1` (stereo not given): the activity change, negative = inhibition in experiment [1] is -2.11%; in experiment [2], 0.234%; in experiment [3], -9.01%; in experiment [4], -4.87%; in experiment [5], -3.57%.

With `C=C(C)C1CC(O)C(C)C12CC(O)C1(C)OC1C2O` (stereo not given), the activity change, negative = inhibition in experiment [1] was -1.35%; in experiment [2], 1.67%; in experiment [3], 0.79%; in experiment [4], -9.52%; in experiment [5], 4.02%.

On to `O=C(NCC(F)F)c1cc(-c2cccs2)c2cccn2n1`, for which the activity change, negative = inhibition was -18.9% in experiment [1]; -12.5% in experiment [2]; -11.6% in experiment [3]; -31.5% in experiment [4]; -15.2% in experiment [5].

These data come from PubChem BioAssay AID1745853 (National Center for Advancing Translational Sciences (NCATS), 2022).
